Measurements reported in article PMC4336329 (PLoS ONE, 2015).
In all, about 310,000 compounds went through this assay and about 2,200 (0.71%) showed an effect of 50% or more. The effect is printed as a negative number. The list shows a part of the results.

Target: human ether-à-go-go-related gene (hERG) potassium channel (human, UniProt Q12809)
Experiment: primary screen, population patch clamp on CHO cells stably expressing hERG

Sequence of human ether-à-go-go-related gene (hERG) potassium channel (Q12809 whole entry, looked up): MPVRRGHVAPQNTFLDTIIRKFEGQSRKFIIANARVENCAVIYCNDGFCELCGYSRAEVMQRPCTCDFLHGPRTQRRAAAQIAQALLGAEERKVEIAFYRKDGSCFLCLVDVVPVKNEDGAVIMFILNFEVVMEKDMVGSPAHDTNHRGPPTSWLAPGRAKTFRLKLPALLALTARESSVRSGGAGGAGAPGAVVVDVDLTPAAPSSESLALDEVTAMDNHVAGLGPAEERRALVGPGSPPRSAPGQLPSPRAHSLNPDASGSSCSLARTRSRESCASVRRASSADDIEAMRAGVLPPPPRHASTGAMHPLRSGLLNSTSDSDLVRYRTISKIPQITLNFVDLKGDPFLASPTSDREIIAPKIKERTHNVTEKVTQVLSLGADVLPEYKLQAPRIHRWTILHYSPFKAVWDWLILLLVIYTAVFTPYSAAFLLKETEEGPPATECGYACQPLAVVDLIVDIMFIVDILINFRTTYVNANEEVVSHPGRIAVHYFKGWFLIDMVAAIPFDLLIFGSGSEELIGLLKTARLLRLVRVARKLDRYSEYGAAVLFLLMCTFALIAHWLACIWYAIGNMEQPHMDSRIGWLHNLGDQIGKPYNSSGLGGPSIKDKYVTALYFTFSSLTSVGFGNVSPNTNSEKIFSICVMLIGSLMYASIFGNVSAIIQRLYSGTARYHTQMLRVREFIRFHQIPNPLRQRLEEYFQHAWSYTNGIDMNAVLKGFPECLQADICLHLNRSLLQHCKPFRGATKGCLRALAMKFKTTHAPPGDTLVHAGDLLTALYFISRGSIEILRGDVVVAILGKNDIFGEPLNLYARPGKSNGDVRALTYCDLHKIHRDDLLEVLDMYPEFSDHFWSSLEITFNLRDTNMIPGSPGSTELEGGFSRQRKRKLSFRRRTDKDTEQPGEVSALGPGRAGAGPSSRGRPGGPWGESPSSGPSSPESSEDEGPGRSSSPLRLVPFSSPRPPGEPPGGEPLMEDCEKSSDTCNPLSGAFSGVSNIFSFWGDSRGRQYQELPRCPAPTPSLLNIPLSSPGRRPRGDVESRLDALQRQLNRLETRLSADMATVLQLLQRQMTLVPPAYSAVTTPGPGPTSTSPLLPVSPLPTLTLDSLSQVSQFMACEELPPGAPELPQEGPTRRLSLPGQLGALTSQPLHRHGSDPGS

Point of comparison: Cc1cc(C)n2nc(SCC(=O)N/N=C/c3ccc(F)cc3)nc2n1, “hERG current change (%, negative = inhibition) at 1uM” value 5.53%. Against it:
- O=C(CSc1nnc(C2CC2)n1C1CC1)Nc1cccc(Br)c1 — lower, -36.4%
- O=C1c2ccccc2C(=O)N1c1ccc(S(=O)(=O)N2CCN(c3ccccc3)CC2)cc1 — lower, 2.89%
- CN(/N=C/c1ccco1)C1=NS(=O)(=O)c2ccccc21 — higher, 11%
- CCOc1ccc(N2C(=O)CC(NC3CCCCNC3=O)C2=O)cc1 (centres unmarked) — higher, 13.2%
- CC(=O)Nc1ccc(S(=O)(=O)N2CCN(c3ncccn3)CC2)cc1 — higher, 14.2%
- CCOC(=O)c1ccc2nc(C)c(C)nc2c1 — lower, 3.64%
- COc1ccc(NC(=O)CO/N=C(\C)c2cccs2)cc1 — higher, 15%
- Cc1ccc(/C=C/C(=O)NCCCc2ccccc2)cc1 — higher, 7.56%
- Cc1cc(C)n2cc(CSc3ncccc3C(=O)O)nc2n1 — higher, 11%
- CCCCN(CC(=O)NCc1ccc(Cl)cc1)S(=O)(=O)c1ccc2c(c1)OCCO2 — higher, 12.2%
- Cc1cccc(NC(=S)NNc2cccc(Cl)c2)c1 — higher, 8.26%
- Cc1ccc(NC(=O)COC(=O)c2cccnc2Cl)cc1S(=O)(=O)N1CCCCC1 — higher, 5.74%
- Cl.Nc1ccc2nc(C(F)(F)F)[nH]c2c1 — higher, 14.8%
- Cc1ccc[n+](CC(=O)c2ccc(NC(=O)c3ccccc3)cc2)c1C — higher, 12.6%
- COc1ccc(NC(=O)C2CC(=O)N/C(=N/N=C/c3ccco3)S2)cc1 (centres unmarked) — higher, 12.6%
- CN(C)CCN(Cc1cc2cc3c(cc2nc1Cl)OCO3)C(=O)c1ccco1 — higher, 26.3%
- CSc1ccc(C2(O)Cc3cccc[n+]3C2c2ccccc2)cc1.[Br-] (centres unmarked) — higher, 10.5%
- O=C(CSc1nnnn1-c1ccccc1)Nc1ncc2c(n1)CC(c1ccco1)CC2=O (centres unmarked) — lower, -0.182%
- Cc1cc(OCC(=O)N2CCCCCC2)ccc1[N+](=O)[O-] — higher, 9.44%
- Cc1ccc(-n2nc3c(=O)n(C(C)C(=O)NCc4ccc(Cl)cc4)nc(C)c3c2C)cc1 (centres unmarked) — lower, -19%
- COc1ccc(S(N)(=O)=O)cc1C(=O)OCCCC(=O)c1ccccc1 — higher, 9.67%
- CCN(CC)CCNC(=O)c1ccc(NC(=O)c2cn(-c3ccc(F)cc3)nc2-c2cccc(OC)c2)cc1 — lower, -8.82%
- O=c1[nH]c(-c2ccccn2)nc(C(F)(F)F)c1Br — higher, 9.06%
- CCO[C@H]1OC(C(=O)Nc2ccccc2)=C[C@@H](c2coc3ccccc3c2=O)[C@@H]1CCCO — higher, 5.79%
- CC(C)(C)OC(=O)NCCc1n[nH]c(=S)o1 — higher, 14.7%
- O=C(c1ccc(OCC2CCCO2)cc1)N1CCN(c2ccccc2)CC1 (centres unmarked) — higher, 9.25%
- COCc1cc(C)nc(N2CCNCC2)c1C#N — higher, 11.7%
- O=C(Nc1ccc(OCC(=O)N2CCOCC2)cc1)Nc1cccc(Cl)c1 — higher, 7.47%
- COC(=O)CNc1nc(-c2ccccc2F)nc2ccccc12 — lower, 5.2%
- CC(=O)Nc1ccc(C(=O)CSc2nnnn2C(C)C)cc1 — lower, 1.27%
- CC(c1ccccc1)n1cnc2ccccc2c1=O (centres unmarked) — higher, 16.1%
- Cn1nc(C(F)(F)F)c(C(=O)Nc2ccc(Cl)cc2)c1Cl — lower, -3.91%
- CCOCCCNC(=O)C(NC(=O)Cc1cccs1)c1ccccc1 (centres unmarked) — higher, 5.99%
- COc1ccc(-c2coc3c(CN4CCOCC4)c(O)ccc3c2=O)cc1 — lower, 0.432%
- CCCCN(c1ccc(C(=O)OC)cc1)S(=O)(=O)c1ccccc1 — higher, 6.44%
- Cc1cc(NCCc2ccccc2F)n2ncnc2n1 — higher, 18.5%
- COC(=O)c1cccc(Nc2nc(-c3cccnc3)nc3ccccc23)c1 — higher, 8.44%
- COc1ccc(C(=O)NNc2cc(C)nc(NNC(=O)c3ccc(OC)cc3)n2)cc1 — higher, 10%
- Nc1ccc(Cl)cc1C(=O)OCC(=O)NC1CCS(=O)(=O)C1 (centres unmarked) — higher, 15.7%
- CC1(C)CC(c2nc(-c3ccc(Cl)cc3)cs2)CCS1.Cl (centres unmarked) — higher, 13.9%
- CCOC(=O)Nc1ccccc1C(=O)N1CCOCC1 — higher, 15.1%
- CCCOc1c(Br)cc(C(=O)OCC(=O)NC2CC2)cc1OC — higher, 8.83%
- Cc1cc(C)cc(N2CC(C(=O)OCC(=O)Nc3cc(C)on3)CC2=O)c1 (centres unmarked) — higher, 20.3%
- CC(C)(C)SCCNC(=O)CN1C(=O)c2ccccc2S1(=O)=O — lower, 3.97%
- COc1ccc(C(CNC(=O)c2ccc(S(=O)(=O)N(C)C)cc2)N2CCCCC2)cc1 (centres unmarked) — lower, 0.868%
- Cc1ccc(Oc2nc3ccccn3c(=O)c2/C=C(\C#N)C(=O)NC2CCS(=O)(=O)C2)c(C)c1 (centres unmarked) — higher, 18%
- COc1cccc(COC(=O)C2CC(=O)N(Cc3ccco3)C2)c1OC (centres unmarked) — higher, 10.6%
- CC(NC(=O)C(=O)N1CCOCC1)C(c1cccs1)N1CCN(c2ccccc2F)CC1 (centres unmarked) — lower, 3.31%
- CC(C)c1onc(C(=O)N2C(C)CCCC2C)c1[N+](=O)[O-] (centres unmarked) — higher, 21.3%
- CN(C)C(=O)c1nnc(Cc2ccc(Cl)cc2)o1 — higher, 12%
- O=C(Nc1c2c(nn1-c1ccccc1)CS(=O)(=O)C2)c1ccc2c(c1)OCO2 — higher, 11.2%
- Nn1c(SCC(=O)NC(=O)NC2CCCC2)nnc1-c1ccccc1F — higher, 6.95%
- N#Cc1c(C(F)(F)F)cc(-c2ccccc2)n(N)c1=O — higher, 17.1%
- Cc1cccc(N2CCN(C(=O)c3ccccn3)CC2C)c1 (centres unmarked) — higher, 12.4%
- O=C1C2CCCN2C(c2cccnc2)N1c1nccs1 (centres unmarked) — higher, 9.96%
- COc1ccc(CC(=O)NCCC2=CCCCC2)cc1 — higher, 17.4%
- C=CCSc1ncccc1C(=O)NCc1ccc(C)cc1 — lower, -9.03%
- Cc1ccc(C(NC(N)=O)c2ccccc2C)cc1 (centres unmarked) — higher, 8.15%
- COc1ccc(NC(=O)N2CCOCC2)cc1OC — higher, 15.8%
- COc1ccccc1-n1nnnc1SCC(=O)NC1CCCC1 — higher, 10.6%
- CSc1nnc(-c2ccc(S(=O)(=O)N3CCCC3)cc2)n1C — lower, -2.03%
- COc1ccc(NC(=O)C2CCCN(S(=O)(=O)c3c(C)n[nH]c3C)C2)cc1 (centres unmarked) — lower, 4.3%
- COc1cc2nc(-c3cccs3)oc(=O)c2cc1OC — higher, 11.8%
- Cc1cccc(-n2nnc(C(=O)NCc3ccc4c(c3)OCO4)c2N)c1 — higher, 17.2%
- Cc1ccc(C(=O)COC(=O)CCN2C(=O)C3C4CCC(C4)C3C2=O)cc1[N+](=O)[O-] (centres unmarked) — lower, 3.52%
- O=C1/C(=N\S(=O)(=O)c2cccs2)C([n+]2ccccc2)=C([O-])c2ccccc21 — higher, 31.7%
- O=C(COc1ccc(Br)cc1)N1CCN(c2ccc([N+](=O)[O-])c(N3CCCCC3)c2)CC1 — lower, 3.94%
- Sc1oc(-c2ccccc2)cc1C=Nc1ccccc1 — lower, -6.53%
- CCOc1ccccc1OCCCCN1CCCC1 — lower, -14.2%
- CCOc1ccc(NCc2ccccc2OCc2cccc(F)c2)cc1.Cl — lower, 3.42%
- CCOCC(=O)Nc1nnc(C2CCCCC2)s1 — higher, 12.6%
- O=S(=O)(c1ccc(NCCc2c[nH]c3ccccc23)nc1)N1CCOCC1 — higher, 11.4%
- CC(=O)c1cc(CN2CCC(C(=O)Nc3cccc(-c4cscn4)c3)CC2)cs1 — lower, 1.73%
- NC(=O)CC12CC3CC(C1)CC(CC(N)=O)(C3)C2 — higher, 18.4%
- COc1ccc(-c2cc(C(=O)N3CCOCC3)c3ccccc3n2)cc1OC — lower, 0.37%
- CC(=O)Nc1cccc(S(N)(=O)=O)c1C — higher, 6.26%
- COc1ccc2cc(C(=O)NCCCN3CCCC3=O)[nH]c2c1 — higher, 13.9%
- CC(C)Oc1ccc(CSC(=N)N)cc1.Cl — lower, 2.31%
- CCOC(=O)[C@H]1[C@H]2COc3ccc(Br)cc3[C@@H]2N2C(=O)c3ccc(F)cc3NC(=O)[C@@]12C — lower, 4.07%
- COc1ccccc1CSc1ncc(-c2ccc([N+](=O)[O-])cc2)[nH]1 — lower, 1.99%
- COc1ccc(C(=O)CC(=O)C(=O)Nc2ccc(C)cc2Cl)cc1 — lower, 5.39%
- COc1cc(CNC(C)C23CC4CC(CC(C4)C2)C3)cc(OC)c1OC.Cl (centres unmarked) — higher, 11.5%
- Cc1ccc(C)c2c1c1ccccc1n2C — higher, 7.34%
- CN(C)CCNc1nc2sc3c(c2c(=O)n1-c1ccc(F)cc1)CCCCC3 — higher, 6.73%
- Cc1cc(=O)oc2c(C)c(OCC(=O)c3ccccc3)ccc12 — higher, 13.6%
- COc1ccc(C2c3c(noc3C)CC(C)(O)C2C(C)=O)cc1 (centres unmarked) — higher, 9.47%
- CC(C)(C)c1csc(NC(=O)CS(=O)(=O)c2ccccc2)n1 — lower, 2.92%
- CC(C)=N/N=c1\scc(C)n1Cc1ccco1 — higher, 7.34%
- Cn1c(CN(O)S(=O)(=O)c2ccc(Cl)cc2)nnc1C(F)(F)F — higher, 14.3%
- O=C(CNCc1ccccn1)Nc1cc(S(=O)(=O)N2CCCCC2)ccc1Cl — higher, 11.3%
- Cc1onc(-c2c(F)cccc2Cl)c1C(=O)NCc1ccco1 — lower, 5.18%
